In patent publication US6410566B1, “Cyclic amine derivatives and their use as drugs” (Teijin Limited, priority 2000, dated 2002):
Some results were stated once for a whole list of compounds, not compound by compound. At least one compound was matched to its structure with a doubt left.

These compounds were tested against T1, binding of human MIP-1α to THP-1 cells (Homo sapiens, UniProt P32246) (assay: Inhibition of MIP-1α binding to THP-1 cells). Details: at 2 μM.
T1 construct: endogenous in cells; host or cells: THP-1 (human monocytic leukemia cell line), whole cells
T1 sequence (P32246 1-355): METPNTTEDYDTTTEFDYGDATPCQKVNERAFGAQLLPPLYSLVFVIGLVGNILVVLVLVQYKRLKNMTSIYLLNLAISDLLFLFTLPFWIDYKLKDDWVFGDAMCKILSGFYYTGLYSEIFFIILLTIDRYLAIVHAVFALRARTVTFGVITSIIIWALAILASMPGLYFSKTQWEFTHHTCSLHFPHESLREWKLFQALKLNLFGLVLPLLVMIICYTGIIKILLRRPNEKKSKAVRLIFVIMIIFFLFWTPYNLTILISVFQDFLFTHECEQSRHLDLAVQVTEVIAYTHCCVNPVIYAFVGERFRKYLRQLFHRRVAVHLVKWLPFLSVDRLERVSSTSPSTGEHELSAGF
Experimental: Measurement of Inhibition of MIP-1α Binding to THP-1 Cells by Test Compounds
Human monocytic leukemia cell line THP-1 was suspended in assay buffer (RPMI-1640 (Gibco-BRL Co.) containing 0.1% BSA and 25 mM HEPES adjusted to pH 7.4) to give a cell suspension of a concentration of 1×10^7 cells/mL. The test compound was diluted in the assay buffer and used as the test compound solution. Iodinated human MIP-1α (DuPont NEN Co.) was diluted in assay buffer to 250 nCi/mL and used as the labeled ligand solution. In a 96 well filter plate (Millipore Co.), 25 μL of test compound solution, 25 μL of labeled ligand solution and 50 μL of cell suspension were aliquoted into each well in this order, stirred (total reaction volume 100 μL), and incubated for one hour at 18° C.
After the reaction, the reaction solution was filtered, and the filter was washed twice with 200 μL of cold PBS (200 μL of cold PBS was added and then filtered). The filter was air-dried and 25 μL of liquid scintillator was added into each well. The radioactivity retained by the cells on the filter were measured using TopCounit (Packard Instrument Co.).
To calculate the ability of test compounds to inhibit binding of human MIP-1α to THP-1 cells, non-specific binding determined by adding 100 ng of unlabeled human MIP-1α (Peprotech Co.) in place of the test compound was subtracted, while the counts with no test compound added was taken as 100%.
Inhibition (%)={1−(A−B)/(C−B)}×100
(A, counts with test compound added; B, counts with 100 ng of unlabeled human MIP-1α added; C, counts with [^125I]-labeled human MIP-1α added).

Inhibition of MIP-1α binding to THP-1 cells, > 80%:
CCCC(NC(=O)c1cccc(OCC)c1)C(=O)NCC1CCN(Cc2ccc(Cl)cc2)CC1 (stereo not shown) [compound 2097]

Same assay, conditions: at 10 μM

Inhibition of MIP-1α binding to THP-1 cells, 20-50%:
Cc1oc(-c2ccccc2)cc1C(=O)NC(CCC(N)=O)C(=O)NCC1CCN(Cc2ccc(Cl)cc2)CC1 (stereo not shown) [compound 810]
CC(=O)c1sccc1C(=O)NC(C)C(=O)NCC1CCN(Cc2ccc(Cl)cc2)CC1 (stereo not shown) [compound 610]
O=C(CNC(=O)c1cccc(C(F)(F)F)c1)NCC1CCN(Cc2ccc(Cl)cc2Cl)CC1 [compound 891]
CC(NC(=O)c1cc2ccccc2n1C)C(=O)NCC1CCN(Cc2ccc(Cl)cc2)CC1 (stereo not shown) [compound 583]
O=C(CNC(=O)c1cccc(C(F)(F)F)c1)NCC1CCN(Cc2cccc([N+](=O)[O-])c2)CC1 [compound 935]
O=C(NC1(C(=O)NCC2CCN(Cc3ccc(Cl)cc3)CC2)CC1)c1cccc([N+](=O)[O-])c1 [compound 791]
Nc1ccc(C(=O)N2CCCC2C(=O)NCC2CCN(Cc3ccc(Cl)cc3)CC2)cc1 (stereo not shown) [compound 723]
Nc1cccc(C(=O)NCC(=O)NCC2CCN(Cc3ccc(Cl)cc3)CC2)c1 [compound 488]
Cc1ccc(S(=O)(=O)CC(=O)NC2CCCN(Cc3ccc(Cl)cc3)C2)cc1 (racemic) [compound 372]
CC(NC(=O)c1cc2ccccc2s1)C(=O)NCC1CCN(Cc2ccc(Cl)cc2)CC1 (stereo not shown) [compound 578]
CC(C)(C)c1ccc(C(=O)N2CCCC2C(=O)NCC2CCN(Cc3ccc(Cl)cc3)CC2)cc1 (stereo not shown) [compound 724]
O=C(CNC(=O)c1ccc([N+](=O)[O-])o1)NCC1CCN(Cc2ccc(Cl)cc2)CC1 [compound 506]
Cc1cccc(C(=O)N2CCCC2C(=O)NCC2CCN(Cc3ccc(Cl)cc3)CC2)c1 (stereo not shown) [compound 744]
CC(C)C(NC(=O)c1ccc(C#N)cc1)C(=O)NCC1CCN(Cc2ccc(Cl)cc2)CC1 (stereo not shown) [compound 638]
CC(C)(NC(=O)c1ccc(C(C)(C)C)o1)C(=O)NCC1CCN(Cc2ccc(Cl)cc2)CC1 [compound 773]
CC(C)C(NC(=O)c1cc(C(F)(F)F)ccc1C(F)(F)F)C(=O)NCC1CCN(Cc2ccc(Cl)cc2)CC1 (stereo not shown) [compound 626]
O=C(NC1(C(=O)NCC2CCN(Cc3ccc(Cl)cc3)CC2)CC1)c1ccc(F)c(C(F)(F)F)c1 [compound 793]
Cc1cc(C(=O)NC(C(=O)NCC2CCN(Cc3ccc(Cl)cc3)CC2)C(C)C)oc1C (stereo not shown) [compound 681]
CC(C)C(NC(=O)c1cccc([N+](=O)[O-])c1)C(=O)NCC1CCN(Cc2ccc(Cl)cc2)CC1 (stereo not shown) [compound 624]
CC(NC(=O)c1ccc(C(C)C)cc1)C(=O)NCC1CCN(Cc2ccc(Cl)cc2)CC1 (stereo not shown) [compound 590]
Cc1oc(C(C)(C)C)cc1C(=O)NC1(C(=O)NCC2CCN(Cc3ccc(Cl)cc3)CC2)CC1 [compound 797]
Cc1cc(C(=O)N2CCCC2C(=O)NCC2CCN(Cc3ccc(Cl)cc3)CC2)c(C)n1C (stereo not shown) [compound 746]
O=C(NC1(C(=O)NCC2CCN(Cc3ccc(Cl)cc3)CC2)CC1)c1ccc(C(F)(F)F)cc1 [compound 795]
COc1ccc(C(=O)NC(C)C(=O)NCC2CCN(Cc3ccc(Cl)cc3)CC2)cc1 (stereo not shown) [compound 592]
O=C(CCCC(=O)NC1CCCCN(Cc2ccc(Cl)cc2)C1)Nc1cccc(Cl)c1 (stereo not shown) [compound 948]
Cc1cccc(C(=O)NC2(C(=O)NCC3CCN(Cc4ccc(Cl)cc4)CC3)CC2)c1 [compound 787]
CC(C)c1cccc(C(=O)NCC(=O)NCC2CCN(Cc3ccc(Cl)cc3)CC2)c1O [compound 497]
COc1cc(C(=O)NC(COCc2ccccc2)C(=O)NCC2CCN(Cc3ccc(Cl)cc3)CC2)cc(OC)c1OC (stereo not shown) [compound 1081]
CC(C)C(NC(=O)c1csc([N+](=O)[O-])c1)C(=O)NCC1CCN(Cc2ccc(Cl)cc2)CC1 (stereo not shown) [compound 659]
Cc1oc(C(C)(C)C)cc1C(=O)NC(COCc1ccccc1)C(=O)NCC1CCN(Cc2ccc(Cl)cc2)CC1 (stereo not shown) [compound 1072]
Cc1ccc(C)c(C(=O)CCC(=O)NC2CCCCN(Cc3ccc(Cl)cc3)C2)c1 (stereo not shown) [compound 993]
Cc1oc(-c2ccccc2)cc1C(=O)NC1(C(=O)NCC2CCN(Cc3ccc(Cl)cc3)CC2)CC1 [compound 798]
Cc1cc(C(=O)N2CCCC2C(=O)NCC2CCN(Cc3ccc(Cl)cc3)CC2)oc1C (stereo not shown) [compound 711]
Cc1ccc(C(=O)CCC(=O)NC2CCN(Cc3ccc(Cl)cc3)C2)cc1 (racemic) [compound 220]
Cc1ccc(S(=O)(=O)CC(=O)NCC2CCCN2Cc2ccc(Cl)cc2)cc1 (stereo not shown) [compound 349]
NC(=O)CCC(NC(=O)c1cc2ccccc2[nH]1)C(=O)NCC1CCN(Cc2ccc(Cl)cc2)CC1 (stereo not shown) [compound 807]
CN(C)c1ccc(C(=O)NCC(=O)NCC2CCN(Cc3ccc(Cl)cc3)CC2)cc1 [compound 499]
O=C(CNC(=O)c1cccc(C(F)(F)F)c1)NCC1CCN(Cc2csc([N+](=O)[O-])c2)CC1 [compound 905]
O=C(CNC(=O)c1cccc(C(F)(F)F)c1)NCC1CCN(Cc2ccccc2O)CC1 [compound 940]
O=C(CNC(=O)c1cccc(C(F)(F)F)c1)NC[C@@H]1CCCN1Cc1ccc(Cl)cc1 [compound 340]

Inhibition of MIP-1α binding to THP-1 cells, > 80%:
CC(C)CC(NC(=O)c1cccc(OC(F)(F)F)c1)C(=O)NCC1CCN(Cc2ccc(Cl)cc2)CC1 (stereo not shown) [compound 1064]
CCc1cccc(C(=O)N[C@H](C)C(=O)NCC2CCN(Cc3ccc(Cl)cc3)CC2)c1 [compound 1033]
COc1ccc(NC(=S)NCC(=O)NCC2CCN(Cc3ccc(Cl)cc3)CC2)cc1 [compound 864]
CCOc1cccc(C(=O)NC(CCC(N)=O)C(=O)NCC2CCN(Cc3ccc(Cl)cc3)CC2)c1 (stereo not shown) [compound 1010]
COc1cccc(C(=O)NCC(=O)NCC2CCN(Cc3ccc(Cl)cc3)CC2)c1 [compound 469]
CCCCc1ccc(S(=O)(=O)NCC(=O)NCC2CCN(Cc3ccc(Cl)cc3)CC2)cc1 [compound 871]
COc1cccc(C(=O)N[C@@H](C)C(=O)NCC2CCN(Cc3ccc(Cl)cc3)CC2)c1 [compound 1031]
CC(NC(=O)c1ccoc1)C(=O)NCC1CCN(Cc2ccc(Cl)cc2)CC1 (stereo not shown) [compound 605]
CCOc1cccc(C(=O)NC(CC(C)C)C(=O)NCC2CCN(Cc3ccc(Cl)cc3)CC2)c1 (stereo not shown) [compound 1001]
COc1cccc(C(=O)N2CCCC2C(=O)NCC2CCN(Cc3ccc(Cl)cc3)CC2)c1 (stereo not shown) [compound 692]
COc1cccc(C(=O)NC(CO)C(=O)NCC2CCN(Cc3ccc(Cl)cc3)CC2)c1 (stereo not shown) [compound 755]
COc1cc(OC)cc(C(=O)N[C@H](C)C(=O)NCC2CCN(Cc3ccc(Cl)cc3)CC2)c1 [compound 1032]
COc1cc(OC)cc(C(=O)N[C@H](CC(C)C)C(=O)NCC2CCN(Cc3ccc(Cl)cc3)CC2)c1 [compound 1065]
CCc1cccc(C(=O)NC(CC(C)C)C(=O)NCC2CCN(Cc3ccc(Cl)cc3)CC2)c1 (stereo not shown) [compound 1003]
